From article PMC4336329 (PLoS ONE, 2015) come the findings set out here.

In all, about 310,000 compounds went through this assay and about 2,200 (0.71%) showed an effect of 50% or more. Effects have a minus sign here. Some of the results follow.

The target of the assay is human ether-à-go-go-related gene (hERG) potassium channel (human, UniProt Q12809). The assay is described as follows: primary screen, population patch clamp on CHO cells stably expressing hERG.
human ether-à-go-go-related gene (hERG) potassium channel, sequence (Q12809 whole entry, looked up): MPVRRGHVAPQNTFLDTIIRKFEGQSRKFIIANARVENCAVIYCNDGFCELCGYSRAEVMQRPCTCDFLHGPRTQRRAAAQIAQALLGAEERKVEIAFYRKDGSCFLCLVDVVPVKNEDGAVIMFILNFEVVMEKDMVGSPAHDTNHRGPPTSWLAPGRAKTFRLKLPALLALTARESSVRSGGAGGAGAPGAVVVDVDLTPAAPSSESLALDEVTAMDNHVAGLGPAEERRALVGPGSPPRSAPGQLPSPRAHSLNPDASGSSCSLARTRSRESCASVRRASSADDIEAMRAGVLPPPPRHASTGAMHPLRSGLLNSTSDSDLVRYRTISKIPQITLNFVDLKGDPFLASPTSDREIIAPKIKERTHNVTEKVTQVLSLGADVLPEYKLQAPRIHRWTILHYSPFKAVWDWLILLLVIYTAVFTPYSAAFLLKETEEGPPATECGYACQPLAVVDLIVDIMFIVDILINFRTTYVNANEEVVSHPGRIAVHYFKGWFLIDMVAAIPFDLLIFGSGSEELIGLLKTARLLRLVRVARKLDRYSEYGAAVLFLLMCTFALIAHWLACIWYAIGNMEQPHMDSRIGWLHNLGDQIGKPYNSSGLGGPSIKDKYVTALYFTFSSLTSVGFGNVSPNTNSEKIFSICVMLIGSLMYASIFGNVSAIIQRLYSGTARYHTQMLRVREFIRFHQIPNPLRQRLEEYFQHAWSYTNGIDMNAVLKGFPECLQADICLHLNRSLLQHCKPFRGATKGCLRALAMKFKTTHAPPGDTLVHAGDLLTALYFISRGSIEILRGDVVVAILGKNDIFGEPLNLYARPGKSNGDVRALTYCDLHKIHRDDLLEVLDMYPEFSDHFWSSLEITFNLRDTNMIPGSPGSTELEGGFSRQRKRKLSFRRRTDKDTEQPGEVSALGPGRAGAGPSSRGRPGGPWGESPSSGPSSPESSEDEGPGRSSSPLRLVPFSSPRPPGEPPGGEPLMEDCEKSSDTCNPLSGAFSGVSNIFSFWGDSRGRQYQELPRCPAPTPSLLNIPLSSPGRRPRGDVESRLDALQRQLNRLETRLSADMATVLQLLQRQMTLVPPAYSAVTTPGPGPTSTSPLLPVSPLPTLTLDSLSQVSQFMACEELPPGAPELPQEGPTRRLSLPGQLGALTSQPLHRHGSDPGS
As to `COC(=O)CS(=O)(=O)c1ccc2c(c1)CC(=O)N2`, the “hERG current change (%, negative = inhibition) at 1uM” value turned out to be 9.47%.

`Cn1nnc2cc(NC(=O)Nc3cccc(Cl)c3)ccc21`: the “hERG current change (%, negative = inhibition) at 1uM” value was determined as 1.69%.

For `O=C1CC(c2cccc(F)c2)c2c(c3ccccc3[nH]c2=O)O1` (centres unmarked), the “hERG current change (%, negative = inhibition) at 1uM” value was 14.3%.

On to `COc1cc(NC(=O)c2ccc(NC3=NC4CS(=O)(=O)CC4S3)cc2)cc(OC)c1` (centres unmarked), for which the “hERG current change (%, negative = inhibition) at 1uM” value is 1.02%.

Regarding `Cc1cccc(S(=O)(=O)c2c(C)cc(C)nc2Cl)c1`, the “hERG current change (%, negative = inhibition) at 1uM” value turned out to be 4.08%.

Turning to `Cc1c(C(=O)Nc2ccccc2)c2ccc(C(F)(F)F)cc2n1O`, the “hERG current change (%, negative = inhibition) at 1uM” value is 11.6%.

As for `CN(C)c1cccc(C(=O)NCc2ccccc2)c1`, the “hERG current change (%, negative = inhibition) at 1uM” value is listed as 11%.

Regarding `C/C=C(/C)C(=O)OC1c2c(ccc3ccc(=O)oc23)OC(C)(C)C1OC(C)=O` (centres unmarked), the “hERG current change (%, negative = inhibition) at 1uM” value is -36.9%.

For `COC(=O)CCC(=O)c1oc2ccc(OC)cc2c1N`, the “hERG current change (%, negative = inhibition) at 1uM” value came out at 13.1%.

As to `Cc1ccc(N(NC(=O)C(O)(c2ccccc2)c2ccccc2)C(=O)CCl)cc1`, the “hERG current change (%, negative = inhibition) at 1uM” value was found to be 6.66%.

As for `CCSc1ccccc1C(=O)NCCc1ccccc1`, the “hERG current change (%, negative = inhibition) at 1uM” value was 16.5%.

As to `Cc1ccc(S(=O)(=O)/N=C(/Nc2cccc(C(=O)O)c2)c2ccccc2)cc1`, the “hERG current change (%, negative = inhibition) at 1uM” value was 18.3%.

As for `COCC(C)NS(=O)(=O)c1ccc(NC(=O)c2ccccn2)cc1` (centres unmarked), the “hERG current change (%, negative = inhibition) at 1uM” value was 8.92%.

For `Cc1ccc(NC(=O)Nc2cc(C)on2)cc1`, the “hERG current change (%, negative = inhibition) at 1uM” value was 1.65%.

On to `COCCNC(=O)c1ccccc1NC(=O)c1ccc(OC)c(OC)c1`, for which the “hERG current change (%, negative = inhibition) at 1uM” value was 4.05%.

Take `COC(=O)c1ccccc1NC(=O)CN(C)S(=O)(=O)c1ccc(OC)c(C)c1`: the “hERG current change (%, negative = inhibition) at 1uM” value is on record as -3.84%.

Take `CCOC(=O)C1CCN(CC(=O)c2ccc(O)c(C)c2O)CC1`: the “hERG current change (%, negative = inhibition) at 1uM” value was found to be 12.3%.

Turning to `Cc1ccc(F)cc1NC(=O)N1CCN(C2c3ccccc3-c3ccccc32)CC1`, the “hERG current change (%, negative = inhibition) at 1uM” value is on record as 20.8%.

With `CCCCN(C)C(=O)c1coc(=O)c2ccccc12`, the “hERG current change (%, negative = inhibition) at 1uM” value is on record as 12.3%.

For the compound `O=C(c1ccco1)N1CCN(C(=O)c2ccccc2OCc2ccc(Cl)cc2)CC1`, the “hERG current change (%, negative = inhibition) at 1uM” value is recorded as -22.9%.

On to `COc1ccc([C@H]2CC(=O)C=C(/C=C/c3ccc(Cl)cc3)C2)cc1`, for which the “hERG current change (%, negative = inhibition) at 1uM” value was found to be 16.5%.

Take `CCOC(=O)N1CCN(c2nc(-c3ccc(OC)cc3)no2)CC1`: the “hERG current change (%, negative = inhibition) at 1uM” value is 13.5%.

As for `COc1cc2c(C(=O)N3CCN(C)CC3)c(CSc3ccccc3)n(C)c2cc1Br`, the “hERG current change (%, negative = inhibition) at 1uM” value is -2.94%.

As to `Cc1ccc(S(=O)(=O)Nc2ccc(NC(=O)c3ccc(F)cc3)cc2)cc1`, the “hERG current change (%, negative = inhibition) at 1uM” value is reported as -3.98%.

For the compound `COc1ccc(O)c(C(=O)c2cnc3c(c2)c(=O)[nH]c(=O)n3C)c1`, the “hERG current change (%, negative = inhibition) at 1uM” value was found to be 10.2%.

For the compound `O=C(NCc1nc2ccccc2[nH]1)C1=C[C@H](c2ccc3c(c2)OCO3)C[C@H](OCc2ccc(CO)cc2)O1`, the “hERG current change (%, negative = inhibition) at 1uM” value is given as 6.34%.

`CCOC(=O)c1sc(C)c2c(=O)n(CCCN3CCOCC3)cnc12`: the “hERG current change (%, negative = inhibition) at 1uM” value amounted to 12.5%.

As to `O=S(=O)(c1ccccc1C(F)(F)F)N1CCN(S(=O)(=O)c2ccccc2C(F)(F)F)CC1`, the “hERG current change (%, negative = inhibition) at 1uM” value is recorded as 2.31%.

On to `O=C(NC1CCCN(CCc2ccccc2)C1)c1c[nH]c2ccccc12` (centres unmarked), for which the “hERG current change (%, negative = inhibition) at 1uM” value is on record as -31.3%.

With `CCSc1nncn1/N=C/c1ccc(OC)c(OC)c1`, the “hERG current change (%, negative = inhibition) at 1uM” value is on record as 3.26%.

Consider `COC(=O)C1=C(C)N(Cc2ccco2)C(=O)C1`, for which the “hERG current change (%, negative = inhibition) at 1uM” value came out at 6.72%.

As to `COc1cccc(Nc2nc(N)c([N+](=O)[O-])c(NCc3ccco3)n2)c1`, the “hERG current change (%, negative = inhibition) at 1uM” value came to 5.63%.

Consider `COc1cccc(N2C(=O)/C(=C/c3ccc(C)o3)C(=O)NC2=S)c1`, for which the “hERG current change (%, negative = inhibition) at 1uM” value is reported as 19.1%.

On to `COc1ccccc1C(=O)NN(C)C1=NS(=O)(=O)c2ccccc21`, for which the “hERG current change (%, negative = inhibition) at 1uM” value was 19%.

Turning to `Cn1c(SCCN2CCCC2)nnc1C1CCN(S(=O)(=O)c2ccc(F)cc2)CC1`, the “hERG current change (%, negative = inhibition) at 1uM” value is listed as 11%.

Take `C[C@H](NC(=O)c1nc[nH]c1C(=O)N[C@@H](Cc1ccccc1)C(=O)OC(C)(C)C)C(=O)OC(C)(C)C`: the “hERG current change (%, negative = inhibition) at 1uM” value came out at 3.44%.

As to `Cc1c(C(=O)Nc2c(C)n(C)n(-c3ccccc3)c2=O)oc2ccccc12`, the “hERG current change (%, negative = inhibition) at 1uM” value is 13.7%.

On to `O=C(COc1cccnc1[N+](=O)[O-])N1CCN(S(=O)(=O)c2ccc3ccccc3c2)CC1`, for which the “hERG current change (%, negative = inhibition) at 1uM” value is -0.433%.

As to `COc1cccc(-c2cc(C(=O)N3CCCc4ccccc43)no2)c1`, the “hERG current change (%, negative = inhibition) at 1uM” value is recorded as 3.79%.

For `O=C(CSC1=NS(=O)(=O)c2ccccc2N1)Nc1ccc(F)cc1`, the “hERG current change (%, negative = inhibition) at 1uM” value is given as 11.6%.

Consider `Cc1cccc(/C=C2\Sc3ccc(C(=O)N4CCC(C)CC4)cc3N(C)C2=O)c1`, for which the “hERG current change (%, negative = inhibition) at 1uM” value amounted to 13.4%.

Consider `CN(Cc1ccccc1)CC(O)COc1ccc(CNCc2nccn2C)cc1` (centres unmarked), for which the “hERG current change (%, negative = inhibition) at 1uM” value is on record as -39.3%.

Take `CCCCc1c(O)nc(SCC(=O)N2CCCCCC2)[nH]c1=O`: the “hERG current change (%, negative = inhibition) at 1uM” value is 4.87%.

Regarding `CCCN(C(=O)Cc1nc(N)n[nH]1)C1(C(=O)Nc2ccccc2C)CCCCC1`, the “hERG current change (%, negative = inhibition) at 1uM” value was determined as 10.6%.
